In the supplement of paper PMC3334620:
The full ranking holds about 33,000 sequences; the median of “E-score (-0.5 to 0.5)” is about -0.035, and the highest 2% start at about 0.34. Some of the results follow.

These sequences were tested against T1, Mot3 (UniProt P54785) (assay: PBM E-score (8-mer binding enrichment) (E-score (-0.5 to 0.5)); higher = stronger / more preferred TF binding; most listed sequences are background and not binding sites). Settings: protein concentration: 200 nM; construct: GST-full length.
T1 sequence: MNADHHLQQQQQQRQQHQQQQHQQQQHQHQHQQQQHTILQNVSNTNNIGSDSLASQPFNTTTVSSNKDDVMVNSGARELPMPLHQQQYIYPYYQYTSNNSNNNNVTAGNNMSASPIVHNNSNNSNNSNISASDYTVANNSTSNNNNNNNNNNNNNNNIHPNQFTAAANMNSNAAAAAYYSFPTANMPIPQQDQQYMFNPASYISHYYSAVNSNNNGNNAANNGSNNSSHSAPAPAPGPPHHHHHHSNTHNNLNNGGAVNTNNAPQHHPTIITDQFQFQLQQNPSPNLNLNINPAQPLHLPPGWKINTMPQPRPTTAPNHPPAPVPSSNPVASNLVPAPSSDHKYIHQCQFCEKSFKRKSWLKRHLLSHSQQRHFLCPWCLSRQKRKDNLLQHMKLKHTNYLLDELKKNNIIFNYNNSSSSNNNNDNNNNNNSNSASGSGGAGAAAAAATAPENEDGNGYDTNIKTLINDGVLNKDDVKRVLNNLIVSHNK
How it was run: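 Universal all-10-mer Agilent arrays, fresh or stripped once, were converted to double-stranded form by primer extension. GST-tagged yeast transcription factors from PURExpress in vitro transcription/translation, full-length or DNA-binding domain only, were applied at about 100-200 nM and detected with fluorescent anti-GST. After masliner normalisation, the Universal PBM Analysis Suite scored each ungapped eight-base word together with its reverse complement by E-score.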

| Sequence | PBM E-score |
| --- | --- |
| GACGGGCA | -0.0809 |
| AGCTCATC | -0.188 |
| AACTCGAA | 0.0821 |
| TCTCACAA | -0.0862 |
| ACCTCTTA | -0.00725 |
| AAAGGCTC | 0.354 |
| CGTCGATA | 0.0759 |
| ATCAAAAC | -0.118 |
| GACTATCA | -0.0607 |
| CAGTTGGA | -0.257 |
| CTGATTCA | -0.0589 |
| GATGTAGC | -0.18 |
| GGAAGTCC | -0.206 |
| ATCAGACC | -0.0722 |
| AATATGCA | -0.152 |
| ATCGCAAC | -0.0906 |
| AATGAGCT | -0.0919 |
| GACAGCAA | -0.173 |
| ACTGGTCG | -0.144 |
| ACTCAAGC | -0.104 |
| GATCGCAC | 0.114 |
| CTGGACCC | -0.297 |
| ACGATCTA | 0.0861 |
| CGGTAAAG | 0.0179 |
| GAAGAGTC | -0.0062 |

| Sequence | PBM E-score |
| --- | --- |
| CCCTGATA | -0.177 |
| AGGGCGAG | -0.161 |
| AGTAATCC | 0.104 |
| ACGAGGGC | -0.126 |
| GCCTCATA | -0.101 |
| ACGGATGG | -0.0994 |
| ATGTTAAA | 0.392 |
| CATTGCCC | -0.182 |
| AATCGAGT | -0.051 |
| CATACATA | 0.329 |
| ATACACGA | 0.352 |
| AGACAGGC | 0.23 |
| AAGGTCCT | -0.099 |
| AGTGTTCG | -0.03 |
| CGATACCC | -0.139 |
| AATAACGA | 0.0862 |
| ATCCGCGG | -0.195 |
| CTACCACC | -0.155 |
| GTGACCCA | -0.0984 |
| CGTGCACG | -0.0903 |
| AATTGAAT | 0.125 |
| CCACCACC | -0.172 |
| GATGTTTA | 0.125 |
| ATAATAGA | -0.0252 |
| CGACCACC | -0.275 |

| Sequence | PBM E-score |
| --- | --- |
| CACAGACC | 0.0761 |
| CTCCGTTC | -0.0461 |
| AATCTAGC | -0.198 |
| GCATCAGC | -0.0634 |
| TCCCAAAA | 0.0948 |
| TAGCATCA | 0.0801 |
| AATCTGAA | 0.0593 |
| CGTCTCGC | -0.217 |
| AGCAACTC | 0.00666 |
| ACGGCCAA | 0.0182 |
| CAAGCAGG | -0.0175 |
| TAAAATTA | 0.12 |
| AGAACCCG | -0.123 |
| ATTTATCC | 0.00874 |
| TCATAACA | 0.255 |
| ATCTCTAA | -0.217 |
| CCTTACGA | 0.121 |
| GAAATTAA | 0.189 |
| CACTCTCA | -0.156 |
| ACAGATCA | 0.00293 |
| GGCGTGGA | -0.277 |
| CACATAGA | 0.0163 |
| CGTGTGAG | 0.102 |
| AAAACTCA | 0.0802 |
| ACGGCACT | -0.139 |

| Sequence | PBM E-score |
| --- | --- |
| GAATGATA | 0.0188 |
| CATCGACC | -0.00064 |
| AGATGTGA | 0.0833 |
| AAGCAATT | 0.193 |
| TATGAAGA | -0.157 |
| GCATTTTA | 0.00137 |
| AGGAATCC | -0.0979 |
| CCAGTTCG | -0.111 |
| CTTACGCC | 0.106 |
| ATCGGGTA | -0.0551 |
| TACATCGA | 0.0651 |
| ACGCTGAC | 0.0943 |
| CAGGCCCA | -0.0213 |
| GTACCAAC | 0.13 |
| ATCGAAAC | -0.134 |
| GCCTAAAA | 0.309 |
| CCTGCGCA | -0.0571 |
| ACAGCTAT | -0.0191 |
| CCGTCCTA | -0.135 |
| CAGTGACG | -0.0721 |
| GCTGTTAA | 0.211 |
| ACGCGTTG | 0.3 |
| CTGCTACC | -0.00184 |
| AGTGAACG | -0.121 |
| CCATAGTA | -0.0932 |

| Sequence | PBM E-score |
| --- | --- |
| CAATTACC | 0.12 |
| GCTTAGTA | -0.00203 |
| ATTCTCGA | -0.00831 |
| ATCGTGAC | -0.00992 |
| GCCAACCC | -0.131 |
| GAGGTTAA | 0.127 |
| AGCGATTC | -0.0991 |
| ATTTTATC | -0.0884 |
| AGAGGCCC | -0.323 |
| ACGCTACC | -0.227 |
| AAATACGA | 0.122 |
| ACTCCTTG | -0.0271 |
| GCCATCGA | -0.0439 |
| CAGGAGGC | -0.0461 |
| GGGGTCCA | -0.182 |
| ACGAGGCA | 0.205 |
| CAAGGTAG | 0.0907 |
| CGGTCGTA | -0.27 |
| GCAAAAGC | 0.194 |
| CGGCAAAA | -0.112 |
| CACGAGGC | 0.0149 |
| CTTTCGCA | 0.00446 |
| CTTCGGTC | -0.0958 |
| ATCTAAAT | 0.0145 |
| CGCCGGAG | -0.221 |

| Sequence | PBM E-score |
| --- | --- |
| AACTAAAC | 0.13 |
| AACAGACT | 0.146 |
| AGCTAGGA | -0.0538 |
| AAGGGGAA | -0.0624 |
| GCACCCAC | 0.153 |
| AATCTGGG | -0.227 |
| ATAAGCGG | -0.234 |
| CCCGTACC | -0.0401 |
| ACTAGGAT | 0.0413 |
| ACAGGGGC | 0.12 |
| AAGACAGT | -0.0989 |
| AGTAGAAG | 0.0882 |
| CCCCGAAC | -0.0861 |
| CAGTGGTA | -0.0277 |
| CCCCTGAC | -0.12 |
| GATTCTCC | -0.355 |
| ATGACCGG | -0.243 |
| TATGTGGA | 0.0211 |
| AGTATTTC | -0.0903 |
| TAGGAGAA | 0.135 |
| AAATCGGT | -0.0942 |
| ACTCGAGC | 0.0195 |
| CCCTTCAA | 0.151 |
| AAACTCGT | 0.0121 |
| GTGGCCGA | -0.285 |

| Sequence | PBM E-score |
| --- | --- |
| CAGTTAGC | -0.274 |
| AAACTGAG | -0.289 |
| AACGATCA | 0.0691 |
| CACTCAGA | -0.0203 |
| GTGGATTA | -0.143 |
| AGCAGGAC | -0.096 |
| CACCTTCA | 0.152 |
| ACCCGTGA | -0.212 |
| AGCCGCTG | -0.311 |
| GGGACCCC | -0.315 |
| AAGGAGGT | -0.143 |
| ACCACACC | -0.16 |
| CTGCTAAC | -0.108 |
| ATATGCGG | -0.167 |
| AGCCGCTC | -0.196 |
| CTCCTCGC | -0.269 |
| AGGTCGGC | -0.342 |
| AGATCCCT | -0.117 |
| AACTCTAG | 0.00906 |
| AGCGCCAT | -0.236 |
| ACGGAGTG | -0.268 |
| CAAGTACC | 0.127 |
